# Results published in patent US20240358672A1, “APPLICATION OF GENISTEIN AND ITS PHOSPHATE ESTER DERIVATIVE AND PHARMACEUTICAL COMPOSITION COMPRISING THE SAME” (National Taiwan University, priority 2023, published 2024).
# Legend:
# hiPSC-ECs = assay: Monocyte (U937) adhesion assay on hiPSC-ECs; conditions: 10 μM genistein with 5 μM Δ^9-THC, 48 hours
# [1] = test system: normal human cardiac fibroblasts-ventricular (NHCF-V) cells; assay: CellTiter-Glo cell viability, cardiac fibroblasts; conditions: increasing concentrations of Δ^9-THC, 48 hours
# [2] = test system: human embryonic stem cell-derived cardiomyocytes (H7 hESC-CMs); assay: CellTiter-Glo cell viability, cardiomyocytes; conditions: increasing concentrations of Δ^9-THC, 48 hours
SMILES,Δ^9-THC-induced monocyte adhesion to hiPSC-ECs (hiPSC-ECs),cytotoxicity (cell viability) [1],cytotoxicity (cell viability) [2]
O=c1c(-c2ccc(O)cc2)coc2cc(O)cc(O)c12 [genistein],reversed,–,–
"CCCCCc1cc(O)c2c(c1)OC(C)(C)[C@@H]1CCC(C)=C[C@@H]21 [Δ^9-THC, Δ^9-tetrahydrocannabinol]",–,without any adverse effect,without any adverse effect
